# Experimental data from PubChem BioAssay (NCATS).
# Where “and” joins values, the source holds several entries; their conditions need not be identical. Identical values can stand only once. The inconclusive results got no clear call from the source; some entries with a clear call stand among them for comparison. For part of these data: Potencies beside an inconclusive call are fits to weak or partial responses and may not hold up. Calls of active or inactive are those of the source. Unless noted, calls come from the whole dose curve; as a rule, active = well fitted curve in the direction sought with a large enough effect; inconclusive = small, poorly fitted or top-dose-only effect, or another doubt; inactive = no such curve, though single readings can be large; an effect the other way counts as inactive or inconclusive.
# Columns and labels:
# [1] = biological target: Cytochrome P450 2C9 (Homo sapiens) (UniProt P11712); test: qHTS Assay for Inhibitors and Substrates of Cytochrome P450 2C9 (AID 883); settings: recombinant CYP2C9, luciferin-H luminescence, 60 min; activity change, negative = inhibition: at 11.4 µM (top of the series) unless noted; note: nearly all actives have a fitted effect of over 60% in size; note: potency is the fitted concentration of half-maximal effect; for activity change, negative = inhibition: % is set by controls: 0 for no effect and ±100 for the full control effect
# UniProt P11712, sequence (P11712 whole entry, looked up): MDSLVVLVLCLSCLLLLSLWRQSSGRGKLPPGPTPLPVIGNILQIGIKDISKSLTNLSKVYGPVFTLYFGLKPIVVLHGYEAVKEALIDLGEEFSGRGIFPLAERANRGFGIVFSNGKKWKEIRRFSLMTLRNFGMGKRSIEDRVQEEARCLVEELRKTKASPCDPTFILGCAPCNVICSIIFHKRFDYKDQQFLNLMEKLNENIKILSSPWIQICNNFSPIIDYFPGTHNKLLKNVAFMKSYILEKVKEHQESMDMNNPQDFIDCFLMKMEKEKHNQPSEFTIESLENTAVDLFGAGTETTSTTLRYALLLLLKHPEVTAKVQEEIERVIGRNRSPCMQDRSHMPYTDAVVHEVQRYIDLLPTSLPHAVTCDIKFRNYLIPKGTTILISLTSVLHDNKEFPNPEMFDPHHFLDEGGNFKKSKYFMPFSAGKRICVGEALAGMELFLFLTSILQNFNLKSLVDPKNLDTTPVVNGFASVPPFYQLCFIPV
# How it was run: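 Inhibition of CYP2C9 is scored as loss of luminescence, with 57uM sulphaphenazole defining 100% inhibition. Substrate Luciferin-H is used at 100uM, equal to its KM; enzyme at 10nM in 25mM KPO4, 60 min at 37C with NADPH regeneration.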
# [2] = qHTS Assay for Identification of Small Molecule Agonists for Hypoxia Response Element Signaling Pathway (AID 914; active = well fitted activation curve with a large enough effect in the signal ratio, with a control signal flat, not every such curve was filed as active; inconclusive = small, poorly fitted or top-dose-only effect, or effect the other way, or a change in a side signal; the % refers to the signal ratio; note: potency is the fitted concentration of half-maximal effect; for activation: top concentration of the series differs between compounds; % of control where 0% means no effect); settings: ME-180 HRE-bla reporter, beta-lactamase ratio, CoCl2, 17 h; activation: hits give high values
# How it was run: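 ME-180 cells carrying an HRE-driven beta-lactamase reporter were treated with compounds in a titration series plus an EC50 level of CoCl2 for 17 h at 37 degrees Celsius; CCF4 readout as the 460nm/530nm ratio gave AC50 values.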
# [3] = biological target: Cytochrome P450 2C19 (Homo sapiens) (UniProt P33261); test: qHTS Assay for Inhibitors and Substrates of Cytochrome P450 2C19 (AID 899); settings: recombinant CYP2C19, luciferin-H EGE luminescence; activity, negative = inhibition: at 11.4 µM (top of the series); note: nearly all actives have a fitted effect of over 60% in size; note: potency is the fitted concentration of half-maximal effect; for activity, negative = inhibition: top concentration of the series differs between compounds; % is set by controls: 0 for no effect and ±100 for the full control effect
# UniProt P33261, sequence (P33261 whole entry, looked up): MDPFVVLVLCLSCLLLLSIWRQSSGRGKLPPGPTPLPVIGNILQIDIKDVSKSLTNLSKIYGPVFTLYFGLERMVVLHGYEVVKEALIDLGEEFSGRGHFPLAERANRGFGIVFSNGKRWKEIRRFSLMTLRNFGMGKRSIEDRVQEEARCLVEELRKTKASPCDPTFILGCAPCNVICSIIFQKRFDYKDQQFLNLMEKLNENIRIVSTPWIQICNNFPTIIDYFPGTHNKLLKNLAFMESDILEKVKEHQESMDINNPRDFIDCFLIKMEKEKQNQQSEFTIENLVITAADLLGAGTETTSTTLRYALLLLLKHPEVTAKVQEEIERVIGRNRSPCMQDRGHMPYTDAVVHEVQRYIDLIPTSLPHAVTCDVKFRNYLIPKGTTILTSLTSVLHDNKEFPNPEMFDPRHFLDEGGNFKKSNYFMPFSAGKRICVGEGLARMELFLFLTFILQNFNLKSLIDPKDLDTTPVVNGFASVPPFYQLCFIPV
# How it was run: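 5nM enzyme + 10uM Luciferin-H EGE (=KM), 50mM KPO4; cpd pin-transferred, 10 min 37C; NADPH regen, 60 min 37C; stopped w/ luciferin detection reagent, 20 min; luminescence. Normalized to 57uM ketoconazole (AC100).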
# [4] = biological target: Cytochrome P450 3A4 (Homo sapiens) (UniProt P08684); test: qHTS Assay for Inhibitors and Substrates of Cytochrome P450 3A4 (AID 884); settings: recombinant CYP3A4, Luciferin-PPXE luminescence; activity change, negative = inhibition: at 57.1 µM (top of the series) unless noted; note: nearly all actives have a fitted effect of over 50% in size; note: potency is the fitted concentration of half-maximal effect; for activity change, negative = inhibition: % is set by controls: 0 for no effect and ±100 for the full control effect
# UniProt P08684, sequence (P08684 whole entry, looked up): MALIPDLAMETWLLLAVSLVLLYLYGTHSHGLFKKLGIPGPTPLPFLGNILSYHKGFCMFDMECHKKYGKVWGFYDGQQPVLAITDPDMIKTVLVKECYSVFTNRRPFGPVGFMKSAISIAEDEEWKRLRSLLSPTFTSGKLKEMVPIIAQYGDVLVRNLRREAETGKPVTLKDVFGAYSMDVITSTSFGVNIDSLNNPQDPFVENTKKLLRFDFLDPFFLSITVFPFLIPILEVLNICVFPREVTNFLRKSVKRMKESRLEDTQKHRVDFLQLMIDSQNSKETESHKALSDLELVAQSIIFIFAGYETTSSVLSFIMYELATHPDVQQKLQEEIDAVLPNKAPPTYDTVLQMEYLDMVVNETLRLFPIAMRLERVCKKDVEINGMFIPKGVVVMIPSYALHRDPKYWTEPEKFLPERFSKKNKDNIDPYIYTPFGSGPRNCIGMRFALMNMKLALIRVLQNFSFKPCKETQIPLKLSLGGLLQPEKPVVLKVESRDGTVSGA
# How it was run: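 Luminescent readout of luciferin produced by CYP3A4 (20 nM) dealkylation of Luciferin-PPXE, 25 uM (its KM). NADPH-driven reaction ran 60 min at RT after 10 min compound preincubation; data scaled to 57 uM ketoconazole as 100% inhibition.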
# [5] = biological target: Cytochrome P450 2D6 (Homo sapiens) (UniProt P10635); test: qHTS Assay for Inhibitors and Substrates of Cytochrome P450 2D6 (AID 891); settings: recombinant CYP2D6, luciferin-ME EGE luminescence; series mostly up to 11.4 µM;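 note: luciferin methyl ether substrate demethylated by CYP2D6 with NADPH regeneration; potency is the fitted concentration of half-maximal effect; nearly all actives have a fitted effect of over 60% in size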
# UniProt P10635, sequence (P10635 whole entry, looked up): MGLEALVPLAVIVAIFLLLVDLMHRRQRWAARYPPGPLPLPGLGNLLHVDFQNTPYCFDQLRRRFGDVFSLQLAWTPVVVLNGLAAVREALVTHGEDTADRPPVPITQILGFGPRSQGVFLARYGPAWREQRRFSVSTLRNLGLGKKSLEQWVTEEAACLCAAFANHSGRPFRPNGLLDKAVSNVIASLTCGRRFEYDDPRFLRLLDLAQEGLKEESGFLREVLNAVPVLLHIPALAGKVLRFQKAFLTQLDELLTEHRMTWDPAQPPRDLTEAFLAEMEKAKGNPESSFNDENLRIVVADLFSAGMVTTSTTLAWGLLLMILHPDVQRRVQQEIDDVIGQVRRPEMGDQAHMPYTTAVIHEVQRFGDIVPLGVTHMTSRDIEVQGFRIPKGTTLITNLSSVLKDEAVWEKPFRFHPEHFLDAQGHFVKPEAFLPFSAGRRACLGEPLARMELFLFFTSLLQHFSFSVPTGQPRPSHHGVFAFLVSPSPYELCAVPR
# How it was run: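 Luminescent read-out of luciferin formed by 5 nM human CYP2D6 demethylating 30 uM Luciferin-ME EGE (Km level) over 60 min at room temperature after NADPH regeneration addition. Data normalized to full inhibition by 1.43 uM quinidine.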
# [6] = qHTS Assay for Identification of Small Molecule Antagonists for NFkB Signaling Pathway (AID 895; active = well fitted inhibition curve with a large enough effect in the signal ratio, with a control signal flat, not every such curve was filed as active; inconclusive = small, poorly fitted or top-dose-only effect, or effect the other way, or a change in a side signal; the % refers to the signal ratio; note: % is set by controls: 0 for no effect and ±100 for the full control effect); settings: NFkB beta-lactamase reporter cells, FRET ratio 460/530, stimulated with 10 pM TNF alpha; activity change, negative = inhibition: at 38.3 µM (top of the series)
# How it was run: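 Beta-lactamase reporter read-out (460 and 530 nm emission ratio, 405 nm excitation, 2 hrs substrate loading RT) after 5 hr stimulation with 10 pM TNF alpha in compound-treated NFkB-bla ME-180 cells in low-serum medium.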
# [7] = qHTS Assay for Identification of Small Molecule Agonists for Thrombopoietin (TPO) Signaling Pathway (AID 917); settings: TPO signaling pathway reporter cells, agonist qHTS, stimulated with TPO at its EC50; series mostly up to 38.5 µM; note: potency is the fitted concentration of half-maximal effect
# How it was run: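 Stimulation at the TPO EC50 (26 pM final) was used to detect activators. Ba/F3 mouse cells bearing human TPO receptor and a luciferase reporter under the Glycoprotein IIb promoter were exposed to compounds for 24 hrs at 37 C.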
# Tags give direction and shape of the fitted curve or compound fluorescence and quenching.
smiles,measurement,setting,value
CO[C@H]1COC(=O)C/C=C\[C@H](C)[C@@H](NS(=O)(=O)c2ccc(C)cc2)COC(=O)CCC[C@@H]1C,Potency,[1],"inconclusive: 3.98 µM [inhibitor, single point]"
same,Potency,[2],"inconclusive: 0.199 µM [inhibitor, single point]"
Nc1cc(S(=O)(=O)O)cc2ccc(S(=O)(=O)O)cc12,Potency,[1],"inconclusive: 7.94 µM [inhibitor, single point]"
same,Potency,[3],"inconclusive: 7.94 µM [inhibitor, single point]"
CC(C)[C@@H](CC(=O)N[C@@H]1CCNC[C@H]1C(=O)N[C@H](CC(=O)N[C@@H](CCC(=O)O)CC(=O)O)Cc1c[nH]c2ccccc12)NC(=O)C[C@H](CO)NC(=O)[C@@H]1CCCC[C@H]1N,Potency,[1],inactive
same,Potency,[3],inactive
CCN1C(=O)[C@@H]2[C@H]3C(=CC[C@@H]2C1=O)C1(OCCCO1)[C@H]1O[C@@H]1[C@H]3O,Potency,[1],"inconclusive: 5.01 µM [inhibitor, single point]"
same,Potency,[3],active: 1.58 µM
Cn1c(=S)c2[nH]c(SCc3cccnc3)nc2n(C)c1=O,Potency,[1],"inconclusive: 6.31 µM [inhibitor, single point]"
same,activation,[2],inconclusive: -1.08%
Cc1nc(N2CCOCC2)c2nc(-c3ccccc3)n(CCCN3CCOCC3)c2n1,Potency,[4],active: 15.8 µM
COC(=O)C/C=C\[C@@H](C)[C@@H](/C=N\O[C@@H](C)c1cc(-c2c(C)cc(C)cc2C)no1)OC,Potency,[1],"inconclusive: 3.16 µM [inhibitor, single point]"
same,Potency,[3],"inconclusive: 2.51 µM [inhibitor, partial curve, poor fit]"
same,activation,[2],inconclusive: -21.9%
COc1ccc(O[C@H]2C=C[C@@H](c3ccccc3)O[C@H]2COC(=O)N2CCCCC2)cc1,Potency,[1],active: 2.51 µM
same,Potency,[5],"inconclusive: 3.98 µM [inhibitor, single point]"
same,Potency,[3],active: 0.501 µM
O=C(NCCO)c1ccc(Cl)cc1,Potency,[1],"inconclusive: 5.01 µM [inhibitor, single point]"
same,Potency,[5],"inconclusive: 2 µM [inhibitor, partial curve]"
same,activation,[2],inactive: 9.98%
CN1C(=O)CC[C@@H]1c1cccnc1,Potency,[1],inactive
same,Potency,[6],inactive
same,Potency,[7],"inconclusive: 3.98 µM [inhibitor, single point]"
COC(=O)[C@H](Cc1ccccc1)NC(=O)[C@@H](C)CO,Potency,[1],"inconclusive: 3.98 µM [inhibitor, single point]"
same,activation,[2],inactive: 5.86%
O=C(O)c1ccccc1/C=N\N=C1c2ccccc2-c2ccccc21,Potency,[1],"inconclusive: 7.94 µM [inhibitor, single point]"
same,activation,[2],inconclusive: -32.3%
COC(=O)[C@@H]1[C@@H](O)[C@]2(O)c3ccccc3O[C@]2(c2ccccc2)[C@H]1c1ccccc1,Potency,[1],"inconclusive: 0.0794 µM [inhibitor, partial curve]"
same,Potency,[3],"inconclusive: 0.316 µM [inhibitor, partial curve]"
CNc1ccnc(-c2c(C)noc2C)n1,"activity change, negative = inhibition",[1],inactive: 41% [at 2.29 µM]
same,Potency,[3],inactive
Cc1cc2c(nc1C)CCCCN2C[C@H](O)CN1CCCc2nc(-c3ccc(Br)cc3)ccc21,Potency,[1],"inconclusive: 3.98 µM [inhibitor, single point]"
same,Potency,[5],"inconclusive: 3.16 µM [inhibitor, single point]"
same,activation,[2],inactive: -0.373%
COc1cccc([C@H]2Oc3ccc(OC)cc3/C(=N\O[C@@H](C)c3cn([C@H](CO)Cc4ccccc4)nn3)[C@@H]2O)c1,Potency,[1],"inconclusive: 3.98 µM [inhibitor, single point]"
same,Potency,[5],"inconclusive: 3.16 µM [inhibitor, partial curve]"
same,Potency,[3],"inconclusive: 0.0631 µM [inhibitor, partial curve, poor fit]"
COc1ccc(-c2ccc3c(n2)CCCN3C[C@H](O)CN2CCCc3nc(-c4ccc(Br)cc4)ccc32)cc1,Potency,[1],"inconclusive: 3.16 µM [inhibitor, single point] and inconclusive: 3.98 µM [inhibitor, single point]"
same,activation,[2],inactive: 17.4% and inactive: 18.3%
Oc1cc(O)c2c(c1)O[C@@H](c1ccc(O)c(O)c1)[C@H](O[C@@]1(c3cc(O)c(O)c(O)c3)Oc3cc(O)cc(O)c3[C@H](O)[C@@H]1O)C2,Potency,[1],"inconclusive: 6.31 µM [inhibitor, single point]"
same,Potency,[3],"inconclusive: 3.98 µM [inhibitor, single point]"
COc1ccc(Oc2ncc3nc(-c4cccs4)c(=O)n(C)c3n2)cc1,Potency,[1],active: 3.16 µM
same,Potency,[2],active: 3.16 µM
CC(=O)OCC1OC(C#CCCc2ccccc2)C=CC1OC(C)=O (stereo not given),Potency,[1],inactive
same,Potency,[3],inactive
O=[N+]([O-])c1cc(Cl)cc2c1nc(NCCO)c1ccccc12,Potency,[4],"inconclusive: 3.16 µM [inhibitor, partial curve]"
C[C@@H]1C=C[C@](Cc2ccccc2)(C(=O)NCC2CC2)N1C(=O)c1ccccc1,Potency,[4],active: 12.6 µM
CCCn1c(C)nc2c(NCCOC)nc(C)nc21,Potency,[4],inactive
Cc1noc(C)c1-c1nccc(NCc2cccnc2)n1,Potency,[4],active: 3.98 µM
Cc1nc(NCc2ccccc2)c2nc(-c3ccccc3)n(CC3CCN(C)CC3)c2n1,Potency,[4],inactive
CCCn1c(C)nc2c(NCCCCN3CCCC3)nc(C)nc21,Potency,[4],inactive
Cc1ccc(S(=O)(=O)N[C@H]2COC(=O)[C@@H](C)COC(=O)[C@H](C)NC(=O)C/C=C\[C@H]2C)cc1,Potency,[4],"inconclusive: 3.98 µM [inhibitor, partial curve]"
COc1ccc(COC(=O)N/N=C2/C[C@@H](O)[C@@H](O)[C@@H]3[C@@H]4C(=O)N([C@@H](C)c5ccccc5)C(=O)[C@H]4CC[C@@H]23)cc1,Potency,[4],"inconclusive: 3.98 µM [inhibitor, partial curve]"
CN1CCN(Cc2nc3cccc4c3c([n+]2[O-])-c2ccccc2-4)CC1,Potency,[4],"inconclusive: 3.98 µM [inhibitor, partial curve]"
CC(C)(C)N1C(=O)[C@H]2[C@H]3[C@H](O)[C@H](O)C/C(=N/OC[C@@H](O)COCc4ccco4)[C@H]3CC[C@@H]2C1=O,Potency,[4],"inconclusive: 3.98 µM [inhibitor, partial curve]"
CC1CC2(C)Oc3ccccc3C3OCC1(COC(=O)Nc1ccccc1)C(C)C32 (stereo not given),Potency,[4],active: 10 µM
CO[C@H]1COC(=O)[C@@H](Cc2ccccc2)NC(=O)[C@@H](C)COC(=O)C/C=C\[C@@H]1C,Potency,[4],"inconclusive: 6.31 µM [inhibitor, single point]"
CC(=O)OC[C@@H]1O[C@H](CCO/N=C(\C)CCN2CCCc3nc(C)c(C)cc32)C=C[C@@H]1OC(C)=O,Potency,[4],"inconclusive: 3.98 µM [inhibitor, single point]"
CON(C)C(=O)c1nnc2c3ccccc3n(S(=O)(=O)c3ccc(C)cc3)c2n1,Potency,[4],"inconclusive: 3.16 µM [inhibitor, single point] and inconclusive: 3.98 µM [inhibitor, partial curve]"
O=C1[C@@H]2[C@H]3[C@H](O)[C@H](O)C/C(=N/OCc4ccccc4)[C@H]3CC[C@H]2C(=O)N1c1ccc(F)cc1F,Potency,[4],"inconclusive: 5.01 µM [inhibitor, partial curve]"
